Measurements reported in PubChem BioAssay (NCATS).
Several values for one entry are separate records, joined by “and”; a condition that tells them apart may be missing. Equal values may be shown once. The inconclusive results got no clear call from the source; some entries with a clear call stand among them for comparison. Potencies of inconclusive entries are doubtful fits and often do not repeat. Where a structure was tested more than once in an assay, its records may differ in their call. Activity calls are given as the source filed them. Calls come from the whole dose curve; as a rule, active = well fitted curve in the direction sought with a large enough effect; inconclusive = small, poorly fitted or top-dose-only effect, or another doubt; inactive = no such curve, though single readings can be large; an effect the other way counts as inactive or inconclusive.

Experiments:
[1] = P-glycoprotein substrates identified in KB-8-5-11 adenocarcinoma cell line, qHTS therapeutic library screen (AID 1346987); note: nearly all actives have a fitted effect of over 65% in size
Outline: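 P-gp-mediated resistance screen: KB-8-5-11 cells treated 72 h with compounds in dose-response. CellTiter-Glo viability.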

[2] = Primary qHTS for inhibitors of nuclear receptor binding SET domain protein 2 (NSD2) in an RCH-ACV wild type WT cells (2C) (AID 1645877); conditions: activity change, negative = cell killing: at 44.9 µM (top of the series) unless noted; note: nearly all actives have a fitted effect of over 70% in size
CRL-7250 = normal cell line; experiment: Cytotoxic Profiling of Annotated Libraries Using Quantitative High-Throughput Screening (AID 1296008); conditions: Five cell lines viability, CellTiter-Glo ATP luminescence, 48-72 h; max response: stronger effect = lower value; note: nearly all actives have a fitted effect of over 60% in size
Outline: (§1)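 Cytotoxicity was measured as CellTiter-Glo ATP luminescence, read after 10 min at room temperature. Compound treatment of the cells lasted 48 or 72 hr at 37 degrees Celsius in a qHTS format.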

NIH3T3 = experiment: as above; conditions: Five cell lines viability, CellTiter-Glo ATP luminescence, 48-72 h; max response: stronger effect = lower value
Outline: as §1

[3] = system: Zika virus NS2B-NS3 protease (unlinked complex); experiment: Primary screen GU Rhodamine qHTS for Zika virus inhibitors: Unlinked NS2B-NS3 protease assay (AID 1347159); note: nearly all actives have a fitted effect of over 60% in size
Outline: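 Compounds, tested up to 114 microM, were incubated for 15 minutes with 25 nM unlinked NS2B-NS3 protease at pH 8.0. Cleavage of 1.5 microM Rhodamine110 substrate was then followed by fluorescence for 15 minutes.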

HaCat = experiment: Cytotoxic Profiling of Annotated Libraries Using Quantitative High-Throughput Screening (AID 1296008); conditions: Five cell lines viability, CellTiter-Glo ATP luminescence, 48-72 h; max response: stronger effect = lower value; note: nearly all actives have a fitted effect of over 60% in size
Outline: as §1

SKOV3 = experiment: Primary qHTS to identify gynecologic anti-cancer compounds using libraries of approved drugs and bioactive compounds (AID 1345084); conditions: Gynecologic cancer cell panel viability, ATPlite luminescence, 48 h; series mostly up to 57.5 µM; note: nearly all actives have a fitted effect of over 55% in size; for activity change, negative = cytotoxicity: % is set by controls: 0 for no effect and ±100 for the full control effect
Outline: (§2)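 Cell viability after 48 h drug treatment, ATPlite luminescence readout; five doses.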

Tov112D = experiment: as above; conditions: Gynecologic cancer cell panel viability, ATPlite luminescence, 48 h; series mostly up to 57.5 µM
Outline: as §2

[4] = Primary qHTS for inhibitors of nuclear receptor binding SET domain protein 2 (NSD2) in an isogenic RCH-ACV NSD2 p.E1099K mutant (9B) (AID 1645876); note: nearly all actives have a fitted effect of over 70% in size; for activity change, negative = viability loss: % is set by controls: 0 for no effect and ±100 for the full control effect
Hek293T = experiment: Primary qHTS to identify gynecologic anti-cancer compounds using libraries of approved drugs and bioactive compounds (AID 1345084); conditions: Gynecologic cancer cell panel viability, ATPlite luminescence, 48 h, control line for the selectivity index; activity change, negative = cytotoxicity: at 57.5 µM (top of the series) unless noted; note: nearly all actives have a fitted effect of over 55% in size; for activity change, negative = cytotoxicity: % is set by controls: 0 for no effect and ±100 for the full control effect
Outline: as §2

[5] = Primary fluorescence-based thiol-reactive (MSTI) qHTS assay for identification of artifact compounds. (AID 1845221);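 note: thiol-reactive compounds lower the probe fluorescence signal; nearly all actives have a fitted effect of over 65% in size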
Outline: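 Probe: MSTI 4 uM, PBS pH 7.4, 2% DMSO. Incubation 1 h, RT, light-protected. Readout fluorescence 525/598 nm.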

JEG-3 = experiment: Primary qHTS to identify gynecologic anti-cancer compounds using libraries of approved drugs and bioactive compounds (AID 1345084); conditions: Gynecologic cancer cell panel viability, ATPlite luminescence, 48 h; series mostly up to 57.5 µM; note: nearly all actives have a fitted effect of over 55% in size; for activity change, negative = cytotoxicity: % is set by controls: 0 for no effect and ±100 for the full control effect
Outline: as §2

C33A = experiment: as above; conditions: Gynecologic cancer cell panel viability, ATPlite luminescence, 48 h; series mostly up to 57.5 µM
Outline: as §2

CAOV3 = experiment: as above; conditions: Gynecologic cancer cell panel viability, ATPlite luminescence, 48 h; activity change, negative = cytotoxicity: at 57.5 µM (top of the series)
Outline: as §2

CASKI = experiment: as above; conditions: Gynecologic cancer cell panel viability, ATPlite luminescence, 48 h; series mostly up to 57.5 µM
Outline: as §2

Es-2 = experiment: as above; conditions: Gynecologic cancer cell panel viability, ATPlite luminescence, 48 h; series mostly up to 57.5 µM
Outline: as §2

HeLa = experiment: as above; conditions: Gynecologic cancer cell panel viability, ATPlite luminescence, 48 h; activity change, negative = cytotoxicity: at 57.5 µM (top of the series)
Outline: as §2

OV90 = experiment: as above; conditions: Gynecologic cancer cell panel viability, ATPlite luminescence, 48 h; series mostly up to 57.5 µM
Outline: as §2

PA-1 = experiment: as above; conditions: Gynecologic cancer cell panel viability, ATPlite luminescence, 48 h; series mostly up to 57.5 µM
Outline: as §2

Tov-21-G = experiment: as above; conditions: Gynecologic cancer cell panel viability, ATPlite luminescence, 48 h; activity change, negative = cytotoxicity: at 57.5 µM (top of the series) unless noted
Outline: as §2
Potency is the fitted concentration of half-maximal effect; tags give direction and shape of the fitted curve.

NC(=O)Nc1sc(-c2ccc(F)cc2)cc1C(N)=O
inconclusive: Potency (CRL-7250) 5.9 µM [inhibitor, full curve, poor fit] | Potency (NIH3T3) 18.7 µM [inhibitor, partial curve]
active: Potency [1] 8.33 µM | Potency [2] 3.72 µM

O=C(O)c1ccccc1NC(=O)N1CCC(c2ccccc2C(F)(F)F)CC1
inactive: outcome (CRL-7250) | Potency (Tov112D)
inconclusive: Potency (HaCat) 4.61 µM [inhibitor, partial curve] | Potency (SKOV3) 1 µM [cytotoxic, single point]
active: Potency [3] 22.4 µM

C[C@@H]1O[C@@H](O[C@H]2[C@H](OC(=O)[C@]34CCC(C)(C)C[C@H]3C3=CCC5[C@@]6(C)C[C@@H](O)[C@@H](O)[C@@](C)(CO)C6[C@H](O)C[C@@]5(C)[C@]3(C)CC4)OC[C@H](O)[C@@H]2O)[C@H](O)[C@H](O)[C@H]1O[C@@H]1OC[C@@H](O)[C@H](O[C@H]2O[C@H](C)[C@@H](O)[C@H](O)[C@@H]2O)[C@H]1O (stereo partly specified)
inactive: activity change, negative = viability loss [4] -2.76% [at 9.23 µM] | max response (CRL-7250) 1.4% | outcome (HaCat) | activity change, negative = cytotoxicity (Hek293T) -1.53% [at 11.6 µM] | activity change, negative = cytotoxicity (Tov112D) 3.92% [at 11.6 µM]

COc1ccc(C(=O)c2ccccc2O)c(O)c1
inactive: outcome (CRL-7250) | max response (HaCat) 4.59%
inconclusive: Potency [1] 14 µM [inhibitor, partial curve, poor fit]

CN1CCCC1Cc1c[nH]c2ccc(CCS(=O)(=O)c3ccccc3)cc12 (stereo unspecified)
inconclusive: Potency [4] 20.5 µM [inhibitor, partial curve] | Potency [2] 29 µM [inhibitor, single point]
inactive: Potency [5] | outcome (CRL-7250) | outcome (HaCat) | Potency (JEG-3)

CC(=O)c1cnc2ccc(-c3cc(Cl)c(O)c(Cl)c3)nc2c1NC1CCC(CN(C)C)CC1 (stereo unspecified)
inconclusive: Potency [3] 14.1 µM [inhibitor, partial curve, poor fit] | Potency [5] 1.72 µM [inhibitor, partial curve] | Potency (CAOV3) 0.0708 µM [cytotoxic, full curve, poor fit] | Potency (HeLa) 0.112 µM [cytotoxic, full curve, poor fit] | Potency (JEG-3) 2.24 µM [cytotoxic, partial curve, poor fit] | Potency (OV90) 1.41 µM [cytotoxic, partial curve, poor fit] | Potency (Tov-21-G) 0.282 µM [cytotoxic, full curve, poor fit]
active: Potency [1] 119 nM and 23.1 nM | Potency [4] 30.3 nM and 3.7 nM | Potency (CRL-7250) 166 nM and 1.19 µM | Potency (NIH3T3) 93.3 nM and 299 nM | Potency (C33A) 0.224 µM | Potency (CASKI) 1 µM | Potency (Es-2) 0.891 µM | Potency (Hek293T) 0.562 µM | Potency (PA-1) 501 nM | Potency (SKOV3) 0.891 µM

OCC(O)CN1CCN(c2ccccc2)CC1 (stereo unspecified)
inactive: max response (CRL-7250) 0.497% and 1.49% | Potency (PA-1)
inconclusive: Potency (HaCat) 5.96 µM [inhibitor, full curve] | Potency (OV90) 35.5 µM [cytotoxic, single point]

CC(=O)OC1C(CO)OC(O[C@H]2[C@H](OC(=O)[C@]34CCC(C)(C)C[C@H]3C3=CCC5[C@@]6(C)CC[C@H](O[C@@H]7O[C@H](C(=O)O)[C@@H](O)[C@H](O[C@@H]8OC[C@@H](O)[C@H](O)[C@H]8O)[C@H]7O[C@@H]7O[C@H](CO)[C@H](O)[C@H](O)[C@H]7O)[C@@](C)(C=O)C6CC[C@@]5(C)[C@]3(C)C[C@H]4O)O[C@H](C)[C@H](OC3OC(C)C(OC4OCC(O)C(O)C4O)C(O)C3O)[C@@H]2O)C(O)C1O (stereo partly specified)
inconclusive: Potency [4] 3.45 µM [inhibitor, single point] | Potency [2] 6.13 µM [inhibitor, partial curve, poor fit]
inactive: max response (CRL-7250) -0.582% | outcome (HaCat) | activity change, negative = cytotoxicity (JEG-3) 3.7% [at 6.55 µM]

COc1ccc(-c2cc(C(O)C3CCCCN3)c3ccccc3n2)cc1 (stereo unspecified)
active: Potency [1] 20.6 µM | Potency (OV90) 31.6 µM | Potency (SKOV3) 28.2 µM
inconclusive: Potency (CRL-7250) 20.6 µM [inhibitor, single point] | Potency (NIH3T3) 29.1 µM [inhibitor, single point] | Potency (C33A) 31.6 µM [cytotoxic, single point] | Potency (CAOV3) 28.2 µM [cytotoxic, single point] | Potency (CASKI) 22.4 µM [cytotoxic, single point] | Potency (Es-2) 39.8 µM [cytotoxic, single point] | Potency (HeLa) 39.8 µM [cytotoxic, single point] | Potency (Hek293T) 14.1 µM [cytotoxic, partial curve, poor fit] | Potency (JEG-3) 39.8 µM [cytotoxic, single point] | Potency (PA-1) 31600 nM [cytotoxic, single point] | Potency (Tov-21-G) 28.2 µM [cytotoxic, single point] | Potency (Tov112D) 28.2 µM [cytotoxic, single point]

COc1cccc(-c2cn(-c3ccc(CCN4CCC(O)CC4)cc3)c3ncnc(N)c23)c1
active: Potency (NIH3T3) 1.3 µM | Potency (CAOV3) 14.1 µM | Potency (OV90) 28.2 µM | Potency (PA-1) 12600 nM | Potency (SKOV3) 8.91 µM | Potency (Tov-21-G) 17.8 µM
inconclusive: Potency [1] 29.1 µM [inhibitor, single point] | Potency (CRL-7250) 29.1 µM [inhibitor, single point] | Potency (C33A) 17.8 µM [cytotoxic, partial curve, poor fit] | Potency (CASKI) 22.4 µM [cytotoxic, partial curve, poor fit] | Potency (Es-2) 39.8 µM [cytotoxic, single point] | Potency (HeLa) 39.8 µM [cytotoxic, single point] | Potency (Hek293T) 31.6 µM [cytotoxic, single point] | Potency (JEG-3) 25.1 µM [cytotoxic, single point] | Potency (Tov112D) 22.4 µM [cytotoxic, partial curve, poor fit]

O=C(Nc1ccc(-c2ccncc2)cc1)N[C@H](CO)c1ccccc1
inconclusive: Potency [1] 29.1 µM [inhibitor, single point] | Potency [4] 23 µM [inhibitor, partial curve] | Potency (CRL-7250) 20.6 µM [inhibitor, single point] | Potency (HaCat) 6.51 µM [inhibitor, single point]

C[C@@H]1C(=O)O[C@H]2[C@H](O)C34[C@H]5C[C@@H](C(C)(C)C)C36[C@@H](OC(=O)[C@@H]6O)O[C@@]4(C(=O)O5)[C@@]12O (stereo partly specified)
inactive: Potency [1] | Potency [2] | max response (CRL-7250) 3.72% | max response (HaCat) -29.1%

C/C=C/C=C/C(O)=C1\C(O)=C(C)C(=O)[C@@]2(C)OC(=O)[C@@](C)(NC(=O)/C=C/C(=O)O)[C@@H]12
inactive: max response (CRL-7250) -29.7% | max response (HaCat) -17.6% | Potency (SKOV3)
inconclusive: Potency [5] 2.92 µM [inhibitor, partial curve] | Potency (PA-1) 0.7 nM

Cc1ccc(NC(=O)C2(c3ccc4c(c3)OC(F)(F)O4)CC2)nc1-c1cccc(C(=O)O)c1
active: Potency [1] 0.526 µM | Potency [3] 17.8 µM | Potency (CRL-7250) 0.187 µM
inactive: Potency [4] | Potency (CASKI)

C=C(C(=O)OC)C1C(O)CC2(C)C(=O)CCC(O)(CO)C2C1O (stereo unspecified)
inconclusive: Potency (HaCat) 8.05 µM [inhibitor, partial curve]
inactive: Potency [4] | Potency [2] | outcome (CRL-7250) | Potency (Tov112D)

Cc1cccc2c1NC(=O)C2(c1ccc(O)cc1)c1ccc(O)cc1
inconclusive: Potency [3] 89.1 µM [inhibitor, single point] | Potency (CRL-7250) 0.206 µM [inhibitor, full curve] | Potency (HaCat) 1.16 µM [inhibitor, partial curve, poor fit] | Potency (HeLa) 25.1 µM [cytotoxic, partial curve, poor fit] | Potency (Hek293T) 25.1 µM [cytotoxic, partial curve, poor fit] | Potency (OV90) 0.316 µM [cytotoxic, full curve, poor fit] | Potency (PA-1) 708 nM [cytotoxic, full curve, poor fit] | Potency (Tov-21-G) 0.891 µM | Potency (Tov112D) 1.58 µM
